# Test results reported in paper PMC4336329 (PLoS ONE, 2015).
# Hit rate of the full screen: of about 310,000 compounds, about 2,200 (0.71%) showed an effect of 50% or more. Effects have a minus sign here. The list shows a part of the results.
# Target: human ether-à-go-go-related gene (hERG) potassium channel (human, UniProt Q12809)
# Assay: primary screen, population patch clamp on CHO cells stably expressing hERG
# Chain of human ether-à-go-go-related gene (hERG) potassium channel (Q12809 whole entry, looked up): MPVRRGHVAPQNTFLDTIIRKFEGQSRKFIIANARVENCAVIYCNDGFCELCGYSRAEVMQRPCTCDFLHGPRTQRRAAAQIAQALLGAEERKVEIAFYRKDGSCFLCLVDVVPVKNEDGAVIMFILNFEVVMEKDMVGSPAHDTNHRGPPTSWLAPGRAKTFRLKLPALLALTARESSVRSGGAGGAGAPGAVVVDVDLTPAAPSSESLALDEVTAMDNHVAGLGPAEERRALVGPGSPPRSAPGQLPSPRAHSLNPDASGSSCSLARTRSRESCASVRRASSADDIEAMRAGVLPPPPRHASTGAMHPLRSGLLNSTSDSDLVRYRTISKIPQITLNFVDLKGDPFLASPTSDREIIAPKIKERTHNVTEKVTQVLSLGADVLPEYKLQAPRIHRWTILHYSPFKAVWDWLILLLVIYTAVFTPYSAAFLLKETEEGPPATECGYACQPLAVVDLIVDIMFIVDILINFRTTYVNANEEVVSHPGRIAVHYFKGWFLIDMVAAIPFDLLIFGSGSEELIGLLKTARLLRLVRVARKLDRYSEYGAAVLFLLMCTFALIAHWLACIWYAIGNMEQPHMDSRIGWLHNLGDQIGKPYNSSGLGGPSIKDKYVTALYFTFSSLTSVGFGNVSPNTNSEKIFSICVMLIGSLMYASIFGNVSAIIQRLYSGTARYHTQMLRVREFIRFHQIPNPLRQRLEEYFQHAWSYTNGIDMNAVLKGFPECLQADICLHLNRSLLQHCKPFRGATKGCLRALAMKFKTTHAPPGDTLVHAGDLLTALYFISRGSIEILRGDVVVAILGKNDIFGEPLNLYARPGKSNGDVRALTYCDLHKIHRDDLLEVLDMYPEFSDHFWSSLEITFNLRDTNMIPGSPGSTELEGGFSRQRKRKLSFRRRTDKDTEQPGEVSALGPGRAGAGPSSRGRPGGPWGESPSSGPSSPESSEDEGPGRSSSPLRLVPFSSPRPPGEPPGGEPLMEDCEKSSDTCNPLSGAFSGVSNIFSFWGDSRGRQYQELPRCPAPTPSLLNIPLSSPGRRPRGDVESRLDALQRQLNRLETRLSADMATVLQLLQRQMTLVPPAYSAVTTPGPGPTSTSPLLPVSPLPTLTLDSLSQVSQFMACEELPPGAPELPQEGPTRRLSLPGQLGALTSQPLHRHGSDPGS
row,Structure (SMILES),"hERG current change (%, negative = inhibition) at 1uM"
1,CN(Cc1ccc(Cl)cc1)C(=O)CNC(=O)C12CC3CC(CC(C3)C1)C2,-2.83%
2,Cc1ccc(CNS(=O)(=O)c2ccc(Br)s2)cc1,25.6%
3,O=C(COc1ccc(-c2nnco2)cc1)NC1CCCc2ccccc21 (centres unmarked),-16%
4,CC(C)(C)c1cnnn1-c1cccc([N+](=O)[O-])c1,12%
5,O=C(O)c1sccc1S(=O)(=O)N1CCOCC1,15.1%
6,Cc1cccc(N(C)C(=O)c2cc3c(=O)[nH]c4ccc(C)cc4c3s2)c1,9.07%
7,CS(=O)(=O)N1CCn2c1nc1ccccc12,8.88%
8,CC(=O)c1ccc(OCCCOc2cccc3cccnc23)cc1,13.7%
9,FC(F)(F)c1ccc(/C=N/N2CCN(Cc3ccccc3)CC2)cc1,11.1%
10,O=C(CN(Cc1ccccc1)C(=O)CNS(=O)(=O)c1ccc(F)cc1)NCc1ccco1,-11.8%
11,Cc1cc(NC(=O)CN2CC(C)OC(C)C2)n(-c2nc3ccccc3s2)n1 (centres unmarked),13.6%
12,COc1ccc(OC(C)C(=O)N2CCN(c3ccccn3)CC2)cc1 (centres unmarked),3.12%
13,COc1cc(C(=O)N2CCN(Cc3ccccc3C(F)(F)F)CC2)cc(OC)c1OC,1.68%
14,Cc1ccc(OCc2cnc(Cl)s2)c(C)c1,15%
15,CCCCCOc1ccc(NC(=O)c2cc(SC)ccc2Cl)cc1,12.1%
16,O=C(c1ccc(Sc2ccc(F)cc2)c([N+](=O)[O-])c1)N1CCOCC1,-0.641%
17,COc1cccc(NC(=O)CN(C)C(=O)c2ccc3c(c2)CC(c2ccccc2)OC3=O)c1 (centres unmarked),0.473%
18,Cc1ccccc1-c1nc(CS(=O)(=O)CC(=O)NC2CCCCC2C)c(C)o1 (centres unmarked),-1.4%
19,CCN(CC)S(=O)(=O)c1ccc(OCC2CCCCO2)c([N+](=O)[O-])c1 (centres unmarked),11.3%
20,O=C(CCc1ccccc1)Nc1ncc2c(n1)CCCC2=O,2.31%
21,CSc1nc2nc(-c3ccccc3)cc(C(F)(F)F)n2n1,10.3%
22,O=C(Cn1nnc2ccccc2c1=O)N1CCOCC1,7.95%

row,Structure (SMILES),"hERG current change (%, negative = inhibition) at 1uM"
1,Cc1cc(C)c(S(=O)(=O)Nc2nnc(C3CCCCC3)s2)c(C)c1,17.2%
2,CC(NCC(O)COc1ccccc1)C1COc2ccccc2O1 (centres unmarked),-2.33%
3,COc1ccc(C(=O)COC(=O)CNS(=O)(=O)c2ccc(C)cc2)cc1,7.18%
4,COC(=O)c1c(-c2ccc(OC)cc2)oc2ccc(-c3cc(OC)c(OC)c(OC)c3)cc12,11.5%
5,Cc1ccc(-c2noc(C3CCCN(C(=O)c4ccc(F)cc4F)C3)n2)cc1 (centres unmarked),-14.9%
6,COc1ccccc1C(=O)NC1CCCc2ccccc21 (centres unmarked),18.4%
7,COc1ccc2ccccc2c1/C=N/Nc1ccc(Cl)c(C(=O)O)c1,14.3%
8,C/C(=N\NC(=O)c1nnn(-c2nonc2N)c1CN1CCCCCC1)c1ccc(Br)cc1,18.2%
9,CNC(=O)c1ccc(OCc2ccccc2)c(OC)c1,4.35%
10,Cc1cc(C(=O)Nc2ccc(S(=O)(=O)Nc3onc(C)c3C)cc2)c(C)o1,7.15%
11,Cc1nc(NC(=O)C(Cl)Cl)sc1C(=O)N(C)C,7.63%
12,COc1cc(NC(=S)N2CCCC(C)C2)cc(OC)c1OC (centres unmarked),13.4%
13,Cc1ccsc1C(=O)Nc1nnc(-c2ccco2)o1,5.56%
14,O=C(CCSc1ccccc1)N1CCCC1,15.8%
15,CC(C)CC(=O)Nc1cc2c3c(c1)CCN3C(=O)CC2,13.3%
16,O=C(COc1c(Br)cc(Br)cc1Br)N/N=C/c1ccco1,13.8%
17,O=C(CSc1nn(-c2ccc(Cl)cc2)c(=S)s1)N1CCN(C(=O)c2ccco2)CC1,-44.1%
18,Cc1nc(NC(N)=S)sc1C(=O)Nc1ccccc1,6.92%
19,CC(C)COc1ccc(-c2nn(-c3ccccc3)cc2C(=O)Nc2nccs2)cc1,7.73%
20,O=C(O)[C@H](Cc1ccccc1)NC(=O)N1CCC(Cc2ccccc2)CC1,1.61%
21,COc1ccc(NC(=O)Cn2c(=O)n(-c3ccc(OC)cc3OC)c(=O)c3c(C)c(C)sc32)cc1,3.79%
22,CCOc1ccc(Oc2ccc(Cl)cc2N)cc1.Cl,7.85%
